The results in this text go back to PubChem BioAssay AID1347073 (National Center for Advancing Translational Sciences (NCATS), 2019).

Hit rate of the full screen: of about 45,000 compounds, about 200 (0.44%) were called active. Inconclusive results (about 7%) are left out. Calls come from the whole dose curve; as a rule, active = well fitted activation curve with a large enough effect; inconclusive = small, poorly fitted or top-dose-only effect; inactive = no such curve, though single readings can be large or run the other way. The list shows a part of the results.

This assay is described as follows: qHTS of TDP-43 Inhibitors: NCGC Sytravon Library Screen. Note: 0% is about no effect; nearly all actives have a fitted effect of over 55% in size. The conditions noted are these: yeast TDP-43 toxicity rescue, BacTiter-Glo growth, 24 h; series mostly up to 46.1 µM; growth rescue (activation): at the top concentration. The method in brief:
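TDP-43-expressing yeast, pregrown in raffinose, seeded at OD600 0.02 in galactose medium with compound for 24 hr at 30 deg C. Growth read by BacTiter-Glo luminescence, so rescue of toxicity appears as activation.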
(qHTS replaces the single test concentration by a dilution series.)
Take `CCN(CC)S(=O)(=O)c1cc(NC(=O)C(C)N2CCN(c3ccccn3)CC2)ccc1C` (configuration not stated): the “growth rescue (activation)” value was inactive: 2.08%.

For `CCCc1nc2ccc(NC(=O)NCCC(=O)OCC)cc2c(=O)n1Cc1cccc(Cl)c1`, the “growth rescue (activation)” value was inactive: -3.08%.

For `CC(=O)Nc1ccc(NC(=O)COC(=O)c2cc(S(=O)(=O)N3CCCC3)ccc2O)cc1`, the “growth rescue (activation)” value was inactive: -3.82%.

Take `COc1cc2[nH]c(=O)n(CCCC(=O)NCCc3ccccc3)c(=O)c2cc1OC`: the “growth rescue (activation)” value was inactive: 20.3%.

Turning to `CCCCOCCCNC(=O)CC(C)c1ccccc1` (configuration not stated), the “growth rescue (activation)” value is inactive: 29.1%.

As to `O=C1c2ccccc2NC(c2ccc([N+](=O)[O-])cc2)N1O` (configuration not stated), the “growth rescue (activation)” value is inactive: -43.4%.

`CC(=O)c1ccc(NC(=S)N2CCN(CCN3C(=O)c4cccc5cccc(c45)C3=O)CC2)cc1`: the “growth rescue (activation)” value was inactive: -20.4%.

As to `O=C1CC(N2CCN(c3ncccn3)CC2)C(=O)N1CCc1ccccc1` (configuration not stated), the “growth rescue (activation)” value is inactive: -6.3%.

With `COC(=O)c1cc(Cl)c(NC(=O)/C=C/c2ccc(OC)cc2)cc1OC`, the “growth rescue (activation)” value was inactive: 0.714%.

Consider `O=c1cnnc(Nc2ccccc2)[nH]1`, for which the “growth rescue (activation)” value is inactive: 4.03%.

Consider `Cc1ccccc1OCC(=O)OCC(=O)NC1CCCCCC1`, for which the “growth rescue (activation)” value was inactive: 12.7%.

Turning to `COc1ccccc1CC1(C)C(=O)Nc2ccc(OC(F)(F)F)cc21` (configuration not stated), the “growth rescue (activation)” value is inactive: -16.1%.

Take `O=S(=O)(N=C(NS(=O)(=O)c1ccc(Cl)cc1)c1ccccc1)c1ccc(Cl)cc1`: the “growth rescue (activation)” value is inactive: 15.6%.

On to `Cc1[nH]nc(S(=O)CC(=O)O)c1[N+](=O)[O-]` (configuration not stated), for which the “growth rescue (activation)” value is inactive: 0.742%.

As to `COC(=O)Cc1ccc(NC(=S)N2CCN(c3cccc(O)c3)CC2)cc1`, the “growth rescue (activation)” value is inactive: 4.02%.

Regarding `CC(C)c1ccc(C(=O)NNC(=O)c2ccncc2)cc1`, the “growth rescue (activation)” value was inactive: 19.6%.

On to `O=C(O)COc1ccc(/C=N/Nc2nc(Nc3ccccc3)nc(N3CCCCC3)n2)cc1`, for which the “growth rescue (activation)” value was inactive: -8.41%.

`CCOc1ccc(/C(O)=C2/C(=O)C(=O)N(CCN(C)C)C2c2ccccc2)cc1Cl` (configuration not stated): the “growth rescue (activation)” value was inactive: 13.1%.

For the molecule `Cc1ccc(CN2CCSc3ccc(C(=O)NC4CCN(Cc5ccccc5)CC4)cc32)cc1`, the “growth rescue (activation)” value is inactive: 7.78%.

For `N=c1c(C(=O)NC2CCCCC2)cc2c(=O)n3ccccc3nc2n1Cc1ccco1`, the “growth rescue (activation)” value was inactive: -5.13%.

On to `CC(=O)Nc1ccc(NC(=O)C2CCN(C(=O)c3ccc([N+](=O)[O-])cc3)CC2)cc1`, for which the “growth rescue (activation)” value is inactive: -5.53%.

As to `COc1ccccc1CNC(=O)CCc1cn(C)c2ccccc12`, the “growth rescue (activation)” value was inactive: 22.4%.

As to `NS(=O)(=O)c1ccc(NC(=S)N2CCN(Cc3ccc4c(c3)OCO4)CC2)cc1`, the “growth rescue (activation)” value is inactive: -7.7%.

Turning to `COc1cc(C2C3=C(CCCC3=O)Nc3[nH]n(-c4ccccc4)c(=O)c32)ccc1OC(C)=O` (configuration not stated), the “growth rescue (activation)” value was inactive: 7.54%.

In the case of `CNc1cc(-c2c(OC)cccc2OC)ncn1`, the “growth rescue (activation)” value is inactive: -5.44%.

For `Cc1ccc(S(=O)(=O)Nc2ccccc2)cc1C(=O)N1CCCC1`, the “growth rescue (activation)” value was inactive: 8.79%.

With `CCOc1ccccc1C1NC(=O)NC(C)=C1C(=O)OC1CCCC1C` (configuration not stated), the “growth rescue (activation)” value is inactive: -11.7%.

For the molecule `COc1ccc(/C=N/NC(=O)CNc2ccc(Br)cc2)c(C(=O)O)c1OC`, the “growth rescue (activation)” value was inactive: 2.2%.

Regarding `CCC(CO)NCc1sccc1C` (configuration not stated), the “growth rescue (activation)” value was inactive: 7.06%.

Consider `Cc1cc(Cc2ccc(N)c(C)c2)ccc1N`, for which the “growth rescue (activation)” value was inactive: 5.71%.

As to `Cc1ccccc1C(=O)NCCCn1ccnc1`, the “growth rescue (activation)” value was inactive: 9.64%.

Consider `O=C(CC(NC(=O)c1ccccc1)c1ccccc1)Nc1cccc2ccccc12` (configuration not stated), for which the “growth rescue (activation)” value was inactive: 6.05%.

As to `O=C(c1ccc2c(c1)N(Cc1ccccc1)C(=O)c1ccccc1S2(=O)=O)N1CCCC1`, the “growth rescue (activation)” value was inactive: 9.25%.

For the molecule `O=C(O)c1nn(CC(=O)N2CCN(c3ccccc3)CC2)c(=O)c2ccccc12`, the “growth rescue (activation)” value was inactive: 9.77%.

Take `CCCn1c(N)c(N(CCOC)C(=O)c2ccc(C#N)cc2)c(=O)[nH]c1=O`: the “growth rescue (activation)” value is inactive: -10.4%.

Consider `CC(=O)c1ccccc1OC(=O)CCN1C(=O)c2ccccc2C1=O`, for which the “growth rescue (activation)” value is inactive: -4.92%.

As to `COc1cc(C(=O)NCCCN(C)C)ccc1OCC(=O)Nc1cccc(C(F)(F)F)c1`, the “growth rescue (activation)” value is inactive: -1.17%.

With `CCOC(=O)C1CCN(C(=O)/C=C/c2ccc(S(=O)(=O)N3CCOCC3)cc2)CC1`, the “growth rescue (activation)” value is inactive: 11%.

As to `CN(c1ccc(C(=O)N/N=C/c2cccc([N+](=O)[O-])c2)cc1)S(=O)(=O)c1ccccc1`, the “growth rescue (activation)” value is inactive: 4.54%.

Take `Nc1nnnn1/N=C/c1cc(Cl)cc(Cl)c1O`: the “growth rescue (activation)” value is inactive: -6.94%.

For the molecule `CCN(CC)C(=S)SCC(=O)Nc1nc(-c2ccccc2)c(-c2ccccc2)o1`, the “growth rescue (activation)” value is inactive: 5.33%.

Consider `CNCCOc1nc(N2CCOCC2)nc(C)c1[N+](=O)[O-]`, for which the “growth rescue (activation)” value was inactive: 5.41%.

Regarding `Cc1ccccc1OCc1nnc(SC(C)C(=O)O)n1Cc1ccccc1` (configuration not stated), the “growth rescue (activation)” value was inactive: -17.2%.

On to `Cc1ccc(C)n1NC(=O)c1cccs1`, for which the “growth rescue (activation)” value is inactive: 1.51%.

With `Cc1cccc(OCCCn2c(=O)oc3ccccc32)c1`, the “growth rescue (activation)” value is inactive: 17.8%.

On to `CSc1nc2ccc(NC(=O)c3cc4ccccc4o3)cc2s1`, for which the “growth rescue (activation)” value is inactive: -6.03%.

On to `COc1cc(N(C(=O)Cc2cccs2)C(C(=O)NC2CCCCC2)c2ccc(C)cc2)ccc1-n1cnnn1` (configuration not stated), for which the “growth rescue (activation)” value is inactive: -2.9%.

Turning to `CCc1ccc(OCC(=O)NC(=S)Nc2ccc(C(=O)O)cc2)cc1`, the “growth rescue (activation)” value is inactive: 26%.

On to `N#CCCn1cc(C=C(C#N)C#N)c(-c2ccc(Cl)cc2)n1`, for which the “growth rescue (activation)” value was inactive: -14.8%.

On to `CCOc1ccc(S(=O)(=O)/N=C(\N)c2ccccc2)cc1`, for which the “growth rescue (activation)” value was inactive: 10.9%.

As to `c1ccc(Cc2noc(CN3CCN(Cc4ccc5c(c4)OCO5)CC3)n2)cc1`, the “growth rescue (activation)” value is inactive: -7.19%.

Consider `CCOC(=O)Cc1csc(N/C(=N/S(=O)(=O)c2cc(Br)ccc2OCC)c2ccccc2)n1`, for which the “growth rescue (activation)” value was inactive: -9.64%.
